# Measured values taken from the supplement of paper PMC8728848.
# Some of the results follow.
# B1: CFEM-PPl (Pichia pastoris), F2QPV1 (protein)
# chain: AVATPPACLLACAAEVVKESSDCDALNNIQCICENEGSAIHACLESTCPDGLSSTALQSFEDVCESVGTEANLDE
# Experiments:
# Experiment in all cases: glycan array binding signal (z-score within array); higher = stronger binding
# Details in all cases: glycan notation: IUPAC condensed, linker removed
# [1] = molecular target: GlcNAc(b1-3)Gal(b1-3)GalNAc
# Outline: (§1)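 The Consortium for Functional Glycomics database supplied 3228 glycan arrays, of which those lacking an available protein sequence were dropped. The binding signal, a within-array Z-score, was averaged across arrays of the same protein sequence and across linkers. Negative scores can be read as non-binding.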
# [2] = molecular target: GlcNAc(b1-3)Gal(b1-4)Glc
# Outline: as §1
# [3] = molecular target: GlcNAc(b1-3)Gal(b1-4)GlcNAc
# Outline: as §1
# [4] = molecular target: GlcNAc(b1-3)Gal(b1-4)GlcNAc(b1-2)Man(a1-3)[GlcNAc(b1-3)Gal(b1-4)GlcNAc(b1-2)Man(a1-6)]Man(b1-4)GlcNAc(b1-4)GlcNAc
# Outline: as §1
# [5] = molecular target: GlcNAc(b1-3)Gal(b1-4)GlcNAc(b1-2)Man(a1-3)[GlcNAc(b1-3)Gal(b1-4)GlcNAc(b1-2)Man(a1-6)]Man(b1-4)GlcNAc(b1-4)[Fuc(a1-6)]GlcNAc
# Outline: as §1
# [6] = molecular target: GlcNAc(b1-3)Gal(b1-4)GlcNAc(b1-2)[GlcNAc(b1-3)Gal(b1-4)GlcNAc(b1-6)]Man(a1-6)[GlcNAc(b1-3)Gal(b1-4)GlcNAc(b1-2)Man(a1-3)]Man(b1-4)GlcNAc(b1-4)GlcNAc
# Outline: as §1
# [7] = molecular target: GlcNAc(b1-3)Gal(b1-4)GlcNAc(b1-3)Gal(b1-4)GlcNAc
# Outline: as §1
# [8] = molecular target: GlcNAc(b1-3)Gal(b1-4)GlcNAc(b1-3)Gal(b1-4)GlcNAc(b1-2)Man(a1-3)[GlcNAc(b1-3)Gal(b1-4)GlcNAc(b1-3)Gal(b1-4)GlcNAc(b1-2)Man(a1-6)]Man(b1-4)GlcNAc(b1-4)GlcNAc
# Outline: as §1
# [9] = molecular target: GlcNAc(b1-3)Gal(b1-4)GlcNAc(b1-3)Gal(b1-4)GlcNAc(b1-2)Man(a1-3)[GlcNAc(b1-3)Gal(b1-4)GlcNAc(b1-3)Gal(b1-4)GlcNAc(b1-2)Man(a1-6)]Man(b1-4)GlcNAc(b1-4)[Fuc(a1-6)]GlcNAc
# Outline: as §1
# [10] = molecular target: GlcNAc(b1-3)Gal(b1-4)GlcNAc(b1-3)Gal(b1-4)GlcNAc(b1-2)[GlcNAc(b1-3)Gal(b1-4)GlcNAc(b1-3)Gal(b1-4)GlcNAc(b1-6)]Man(a1-6)[GlcNAc(b1-3)Gal(b1-4)GlcNAc(b1-3)Gal(b1-4)GlcNAc(b1-2)Man(a1-3)]Man(b1-4)GlcNAc(b1-4)[Fuc(a1-6)]GlcNAc
# Outline: as §1
# [11] = molecular target: GlcNAc(b1-3)Gal(b1-4)GlcNAc(b1-3)Gal(b1-4)GlcNAc(b1-3)Gal(b1-4)GlcNAc(b1-2)Man(a1-3)[GlcNAc(b1-3)Gal(b1-4)GlcNAc(b1-3)Gal(b1-4)GlcNAc(b1-3)Gal(b1-4)GlcNAc(b1-2)Man(a1-6)]Man(b1-4)GlcNAc(b1-4)GlcNAc
# Outline: as §1
# [12] = molecular target: GlcNAc(b1-3)Gal(b1-4)GlcNAc(b1-3)Gal(b1-4)GlcNAc(b1-3)Gal(b1-4)GlcNAc(b1-2)Man(a1-3)[GlcNAc(b1-3)Gal(b1-4)GlcNAc(b1-3)Gal(b1-4)GlcNAc(b1-3)Gal(b1-4)GlcNAc(b1-2)Man(a1-6)]Man(b1-4)GlcNAc(b1-4)[Fuc(a1-6)]GlcNAc
# Outline: as §1
# [13] = molecular target: GlcNAc(b1-3)Gal(b1-4)GlcNAc(b1-3)Gal(b1-4)GlcNAc(b1-3)Gal(b1-4)GlcNAc(b1-2)[GlcNAc(b1-3)Gal(b1-4)GlcNAc(b1-3)Gal(b1-4)GlcNAc(b1-3)Gal(b1-4)GlcNAc(b1-6)]Man(a1-6)[GlcNAc(b1-3)Gal(b1-4)GlcNAc(b1-3)Gal(b1-4)GlcNAc(b1-3)Gal(b1-4)GlcNAc(b1-2)Man(a1-3)]Man(b1-4)GlcNAc(b1-4)[Fuc(a1-6)]GlcNAc
# Outline: as §1
# [14] = molecular target: GlcNAc(b1-3)Gal(b1-4)GlcNAc(b1-3)Gal(b1-4)GlcNAc(b1-3)Gal(b1-4)GlcNAc(b1-3)Gal(b1-4)GlcNAc(b1-2)Man(a1-3)[GlcNAc(b1-3)Gal(b1-4)GlcNAc(b1-3)Gal(b1-4)GlcNAc(b1-3)Gal(b1-4)GlcNAc(b1-3)Gal(b1-4)GlcNAc(b1-2)Man(a1-6)]Man(b1-4)GlcNAc(b1-4)GlcNAc
# Outline: as §1
# [15] = molecular target: GlcNAc(b1-3)Gal(b1-4)GlcNAc(b1-3)Gal(b1-4)GlcNAc(b1-3)Gal(b1-4)GlcNAc(b1-3)Gal(b1-4)GlcNAc(b1-2)Man(a1-3)[GlcNAc(b1-3)Gal(b1-4)GlcNAc(b1-3)Gal(b1-4)GlcNAc(b1-3)Gal(b1-4)GlcNAc(b1-3)Gal(b1-4)GlcNAc(b1-2)Man(a1-6)]Man(b1-4)GlcNAc(b1-4)[Fuc(a1-6)]GlcNAc
# Outline: as §1
# [16] = molecular target: GlcNAc(b1-3)Gal(b1-4)GlcNAc(b1-3)Gal(b1-4)GlcNAc(b1-3)Gal(b1-4)GlcNAc(b1-3)Gal(b1-4)GlcNAc(b1-2)[GlcNAc(b1-3)Gal(b1-4)GlcNAc(b1-3)Gal(b1-4)GlcNAc(b1-3)Gal(b1-4)GlcNAc(b1-3)Gal(b1-4)GlcNAc(b1-6)]Man(a1-6)[GlcNAc(b1-3)Gal(b1-4)GlcNAc(b1-3)Gal(b1-4)GlcNAc(b1-3)Gal(b1-4)GlcNAc(b1-3)Gal(b1-4)GlcNAc(b1-2)Man(a1-3)]Man(b1-4)GlcNAc(b1-4)[Fuc(a1-6)]GlcNAc
# Outline: as §1
# [17] = molecular target: GlcNAc(b1-3)Gal(b1-4)GlcNAc(b1-3)Gal(b1-4)GlcNAc(b1-3)GalNAc
# Outline: as §1
# [18] = molecular target: GlcNAc(b1-3)Gal(b1-4)GlcNAc(b1-3)GalNAc
# Outline: as §1
# [19] = molecular target: GlcNAc(b1-3)Gal(b1-4)GlcNAc(b1-3)[GlcNAc(b1-3)Gal(b1-4)GlcNAc(b1-3)]GalNAc
# Outline: as §1
# [20] = molecular target: GlcNAc(b1-3)Gal(b1-4)GlcNAc(b1-6)[Gal(b1-3)]GalNAc
# Outline: as §1
# [21] = molecular target: GlcNAc(b1-3)Gal(b1-4)GlcNAc(b1-6)[GlcNAc(b1-3)Gal(b1-3)]GalNAc
# Outline: as §1
# [22] = molecular target: GlcNAc(b1-3)Gal(b1-4)GlcNAc(b1-6)[GlcNAc(b1-3)]Gal(b1-4)GlcNAc
# Outline: as §1
binder,measurement,setting,value
B1,glycan array binding signal (z-score),[1],-0.202
same,glycan array binding signal (z-score),[2],-0.288
same,glycan array binding signal (z-score),[3],-0.317
same,glycan array binding signal (z-score),[4],-0.208
same,glycan array binding signal (z-score),[5],-0.223
same,glycan array binding signal (z-score),[6],0.41
same,glycan array binding signal (z-score),[7],-0.282
same,glycan array binding signal (z-score),[8],0.02
same,glycan array binding signal (z-score),[9],-0.057
same,glycan array binding signal (z-score),[10],-0.038
same,glycan array binding signal (z-score),[11],-0.083
same,glycan array binding signal (z-score),[12],-0.05
same,glycan array binding signal (z-score),[13],-0.098
same,glycan array binding signal (z-score),[14],-0.188
same,glycan array binding signal (z-score),[15],-0.247
same,glycan array binding signal (z-score),[16],-0.132
same,glycan array binding signal (z-score),[17],-0.203
same,glycan array binding signal (z-score),[18],-0.329
same,glycan array binding signal (z-score),[19],-0.22
same,glycan array binding signal (z-score),[20],0.274
same,glycan array binding signal (z-score),[21],-0.265
same,glycan array binding signal (z-score),[22],-0.335
